About 200 (0.44%) of roughly 45,000 compounds were called active. About 7% were inconclusive and are not listed. Calls come from the whole dose curve; as a rule, active = well fitted activation curve with a large enough effect; inconclusive = small, poorly fitted or top-dose-only effect; inactive = no such curve, though single readings can be large or run the other way. This is one part of the list.
Assay: qHTS of TDP-43 Inhibitors: NCGC Sytravon Library Screen; note: 0% is about no effect; nearly all actives have a fitted effect of over 55% in size
Conditions: yeast TDP-43 toxicity rescue, BacTiter-Glo growth, 24 h; series mostly up to 46.1 µM; growth rescue (activation): at the top concentration
How it was run: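 TDP-43-expressing yeast, pregrown in raffinose, seeded at OD600 0.02 in galactose medium with compound for 24 hr at 30 deg C. Growth read by BacTiter-Glo luminescence, so rescue of toxicity appears as activation.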

| SMILES | growth rescue (activation) |
| --- | --- |
| COc1ccccc1CNCC(=O)Nc1cc(S(=O)(=O)N2CCCCC2)ccc1C | inactive: 28.7% |
| O=C(Cn1c2c(c(-c3ccccc3Cl)cc1=O)CCC2)NCC1CCCO1 (configuration not stated) | inactive: 33.8% |
| O=C(Nc1cc(S(=O)(=O)Nc2ccc(Cl)cc2)ccc1N1CCCCC1)c1ccc(F)cc1 | inactive: -1.38% |
| COc1ccc(/C=C(\C#N)C(=O)NCc2ccccc2)cc1O | inactive: 14.4% |
| O=C(Nc1ccc(C(=O)Oc2ccccc2)c(O)c1)c1ccccc1 | inactive: 9.19% |
| CCOC(=O)N1CCN(C(=O)C2CCN(Cc3cccc(OCc4ccccc4)c3)CC2)CC1 | inactive: 9.93% |
| CC(NC(=S)Nc1ccccc1Cl)C(c1cccs1)N1CCCC1 (configuration not stated) | inactive: 7.95% |
| Cc1cc(OCC(O)CN2C(C)CCCC2C)ccc1C(C)C (configuration not stated) | inactive: 12.5% |
| Cc1ccc(S(=O)(=O)Nc2ccc(C(=O)N3CCCC3)cc2)c(C)c1NS(C)(=O)=O | inactive: 11.9% |
| COc1cccc(/C=C2\SC(=S)N(N3CCOCC3)C2=O)c1OC | inactive: 21.4% |
| CC1=C(C#N)C(c2ccoc2)C(C(=O)OCc2ccccc2)=C(N)S1 (configuration not stated) | inactive: 5.92% |
| O=C(Nc1cnn(Cc2ccccc2)c1)c1nc2ncccn2n1 | inactive: 4.76% |
| S=C(NC1CCCCC1)N1CCN(Cc2ccccc2)CC1 | inactive: 17.3% |
| Cc1ccc2c(c1)N(CC(=O)N1CCCCCC1)C(=O)C(C)O2 (configuration not stated) | inactive: 1.36% |
| OC[C@@H]1CN(Cc2ccco2)C[C@H](n2cnc3c(N4CCN(c5ccccc5)CC4)ncnc32)O1 | inactive: 1.15% |
| COc1cc(C(=O)N2CCC(C(=O)Nc3cccc(C(C)=O)c3)CC2)cc(OC)c1OC | inactive: 2.27% |
| COc1ccc2c(c1)C(c1cccs1)=NNC(c1cccnc1)=N2 | inactive: 11.2% |
| CC(=O)Nc1ccc(NC(=S)NC(=O)c2ccc([N+](=O)[O-])c(C)c2)cc1 | inactive: 12.6% |
| CCOc1ccc(NC(=O)/C(C#N)=C\c2ccc(N3CCCC3)c(C)c2)cc1 | inactive: 7.09% |
| Cc1c(Cl)cccc1NC(=S)N(CCCN1CCOCC1)Cc1ccco1 | inactive: -1.66% |
| COc1ccc(NC(=O)COc2ccccc2C(=O)NCC(c2ccccc2)N(C)C)cc1Cl (configuration not stated) | inactive: -12.1% |
| CC(=O)Nc1cc[n+](C(C)C(=O)c2ccc(Cl)cc2)cc1 (configuration not stated) | inactive: 10.7% |
| O=C(CNC(=O)c1ccccc1)N/N=C/c1cn[nH]c1-c1ccccc1 | inactive: 14.4% |

| SMILES | growth rescue (activation) |
| --- | --- |
| N#CC1=C(N)Oc2cc(O)ccc2C1c1cccnc1 (configuration not stated) | inactive: 7.43% |
| COc1ccc(C(=O)Nc2cccc(NC(C)=O)c2)cc1OC | inactive: 7.77% |
| Cc1ccccc1C1c2[nH]c3ccccc3c2CCN1C(=O)c1ccc(=O)n(C)n1 (configuration not stated) | inactive: -3.44% |
| COCCNC(=O)C(=O)N/N=C(\C)CC(=O)Nc1ccc2c(c1)OCO2 | inactive: -4.24% |
| Cc1cc(NS(=O)(=O)c2ccc(NC(=O)C(C)Oc3ccc(C(C)C)cc3)cc2)no1 (configuration not stated) | inactive: 33.4% |
| CC(C)OC(=O)NCCOC(=O)Nc1ccccc1Cl | inactive: 29.5% |
| COc1cccc(/C=C(\CC(=O)O)c2nc3ccccc3s2)c1 | inactive: -27.6% |
| Cc1cc(Br)ccc1SCC(=O)OCC(=O)NC(C)c1ccccc1 (configuration not stated) | inactive: 10.4% |
| COc1ccc(/C=C(\NC(=O)c2ccc(C)cc2)C(=O)NCCN2CCOCC2)cc1 | inactive: 12.3% |
| Cc1cccc(C(C(N)=O)c2ncc(C(F)(F)F)cc2Cl)c1 (configuration not stated) | inactive: -6.71% |
| O=C(NNC(=O)C1CCN(c2ncccn2)CC1)c1ccccc1 | inactive: 3.47% |
| CCN(CC)CCNC(=O)c1c(O)c2cc(OC)c(OC)cc2[nH]c1=O | inactive: 8.88% |
| O=S(=O)(c1ccc(Cl)cc1)c1nc(-c2ccco2)oc1N1CCOCC1 | inactive: 7.32% |
| Cc1cc(NC(=O)CSc2nnc(-c3ccncc3)n2-c2ccccc2)no1 | inactive: -11% |
| COc1ccc(/C=C2/SC(=S)N(CCCC(=O)Nc3cccc(O)c3)C2=O)cc1 | inactive: -9.51% |
| CCCc1c(O)nc(SCC(=O)NCc2ccco2)[nH]c1=O | inactive: -1.48% |
| CCOC(=O)c1c(NC(=O)C(C)N2CCN(S(=O)(=O)c3cccs3)CC2)sc2c1CCC(C)C2 (configuration not stated) | inactive: 6.37% |
| CCCCSc1nnc(-c2ccc(NC(C)=O)cc2)n1C | inactive: -15.2% |
| COc1ccc(C(=O)CSc2nc(C)cc(C)n2)cc1[N+](=O)[O-] | inactive: 21% |
| COc1ccc(S(=O)(=O)NC(=O)C2(C)CCN2C(=O)CCc2ccc(Cl)cc2Cl)cc1 (configuration not stated) | inactive: 17.8% |
| O=C(NCCc1ccccn1)c1ccc(OC(F)F)cc1 | inactive: -3.19% |
| CCCNC(=O)NC(=O)CSc1ccc(C)cc1C | inactive: 7.75% |
| CCOc1ccc(NC(=S)NC2CC3CCC(C2)N3Cc2ccco2)cc1 (configuration not stated) | inactive: -4.74% |

| SMILES | growth rescue (activation) |
| --- | --- |
| CCN(CCCNC(=O)C1CCN(S(=O)(=O)N2CCOCC2)CC1)c1cccc(C)c1 | inactive: 11.2% |
| CC(C)(C)NC(=O)CN1C(=O)/C(=C/c2ccccc2)SC1=S | inactive: -4.98% |
| COc1ccc(-c2nn(-c3ccccc3)cc2C(=O)N2CCN(C(=O)c3ccco3)CC2)cc1 | inactive: 9.39% |
| CCC(CC)C(=O)N(C)c1c(C)nc2c(OCc3cccc(Cl)c3)cccn12 | inactive: 14.6% |
| O=C1c2ccccc2NC(c2ccco2)N1NS(=O)(=O)c1ccccc1 (configuration not stated) | inactive: -8.52% |
| COc1cccc(/C=N/n2nnnc2N)c1O | inactive: -3.64% |
| CCN(CC)S(=O)(=O)c1cc(OC)c(C)cc1C | inactive: 2.38% |
| C[C@H](NS(=O)(=O)c1ccccc1F)C(=O)OCC(=O)Nc1ccc2c(c1)OCCO2 | inactive: 14.8% |
| Cc1cccc(C)c1NC(=O)CSCC(=O)O | inactive: -40% |
| CCC(=O)c1ccc(Oc2ccc(C(=O)c3ccc(C)cc3)cc2[N+](=O)[O-])cc1 | inactive: 27.3% |
| CN(Cc1ccccc1N1CCCC1)C(=O)c1cc2ccccc2o1 | inactive: 6.7% |
| Cc1cc(C)n(C(=O)CNC(=O)/C=C/c2ccccc2)n1 | inactive: 3.63% |
| COc1ccc(C(=O)NNC(=O)c2ccccc2[N+](=O)[O-])cc1 | inactive: 13.6% |
| CC(=O)NC(c1ccc(F)c(F)c1)c1nc(-c2ccccc2)cs1 (configuration not stated) | inactive: 28.6% |
| COc1cc(C(=O)OCc2cc(=O)n3ccsc3n2)ccc1OC(C)C | inactive: 16.8% |
| CCOc1ccc2[nH]c3c(N4CCN(C(=O)c5ccco5)CC4)ncnc3c2c1 | inactive: 9.68% |
| COc1ccc([N+](=O)[O-])cc1N(CC(=O)NCCSc1ccc(C)cc1)S(C)(=O)=O | inactive: -0.529% |
| CC(=O)c1ccc(N2CCN(C(=O)/C=C/c3ccc(S(=O)(=O)NCc4ccco4)cc3)CC2)cc1 | inactive: 14.3% |
| Cc1ccc(S(=O)(=O)N2CCN(C)CC2)cc1C(=O)NC1CCCCC1 | inactive: -5.78% |
| CC1=NN(C(N)=S)C(=O)C1N=Nc1ccc([N+](=O)[O-])cc1 (configuration not stated) | inactive: -3.86% |
| Cc1ccc(-c2nnc(SCC(=O)NNC(=O)COc3ccccc3C)n2C)cc1 | inactive: -9.46% |

From PubChem BioAssay AID1347073 (National Center for Advancing Translational Sciences (NCATS), 2019)
